The values below come from publication PMC12136788.

T1: UNK ZnF1-3 (human, UniProt Q9C0B0 31-174)
T1 sequence: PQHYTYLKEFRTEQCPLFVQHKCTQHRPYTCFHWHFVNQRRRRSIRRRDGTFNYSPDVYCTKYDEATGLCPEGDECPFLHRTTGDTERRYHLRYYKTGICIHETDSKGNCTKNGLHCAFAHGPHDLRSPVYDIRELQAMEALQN

B1: 38884973_38885093_2851_3pUTR_ENSG00000157540_ENST00000338785|human|control|control (ssRNA)
RNA: GGGAGUUCUACAGUCCGACGAUCGAUGUGGCAAGUUAAAAUGGGGGAGCAAAAAGAGGAUACCUCUGAGCUAUCCAUGAAGAUGGGUUUGGACAUGGCUCUUUUAAACACUUCAAUGUCCCUUUGCAAUCUUUUCAAGUUAAACAACAGAGGAUUGAGCAUCA
B2: 70736725_70739375_2123_CDS_ENSMUSG00000020817_ENSMUST00000076270|mouse|control|control (ssRNA)
RNA: GGGAGUUCUACAGUCCGACGAUCUAAUGACACAUGCAAGCUGUGCUUCCCCUGGAGGCUGUCGUUGUCUUUCUGUAACCUCACCAACUCUUCUGAAACCUGUUCACGUGACUGCAUCAGCACCGCCAUCUGCUCCUGAACGUCCAACAGAGGAUUGAGCAUCA
B3: 34074026_34074146_308_3pUTR_ENSG00000135387_ENST00000341394|human|control|control (ssRNA)
RNA: GGGAGUUCUACAGUCCGACGAUCACCCCGAGAAUCUGCUUCAUGGCCUCGGUCUGGACAGCGCCGGUGCCGGUUGCGGGGUGCUGAGAAGCCGGCGCGGCGGCCCCGGCUCCCGCGGCCGCCUCACUCCCGGAGGAACCCGACCAACAGAGGAUUGAGCAUCA
B4: 115657009_115659798_1181_3pUTR_ENSMUSG00000054414_ENSMUST00000067485|mouse|control|control (ssRNA)
RNA: GGGAGUUCUACAGUCCGACGAUCGCGUCAGCAUCAGGGGCUACCACGAGCUUCAAGGUUCCCACGUAAACAUCAGAACAGAGUGUCCAGAAGUGCUGUUCUUGCAAGUUGUAAACUCCUUGUAACUGUUGCACCCUCUGAUAGCAACAGAGGAUUGAGCAUCA
B5: chr1:46159212:46159213:+_ENSG00000159596_ENST00000372025|hu_mus|hu_hu_hu_mus_True|88_88 (ssRNA)
RNA: GGGAGUUCUACAGUCCGACGAUCUCUGAUCCCUCCCAAGAAAGCUAGGAAACUGGCUCCAUAAGCCAUCUGAGUGAAAGCUAGGACGGGGAUAUAAGACUUUGUUAUUACCAUGAGAAGUGGGGGAGCAGUAAAGGGGAUUAACAACAGAGGAUUGAGCAUCA
B6: chr1:39494447:39494448:+_ENSG00000168653_ENST00000372967|hu_mus|hu_hu_hu_mus_False|18_48 (ssRNA)
RNA: GGGAGUUCUACAGUCCGACGAUCGCACCGAGCGGCGUUCUUAUAGGGCUGUUCUGCGCUUAGGAACAUAAAGUGCCGGUCCAGGCUAAGGCCGAACUUUUUCUGUAUGUCAAGGAAAGGCAUGGCCCUGCAGUGCCCUUGUCACAACAGAGGAUUGAGCAUCA
B7: chr11:75113396:75113397:+_ENSG00000149273_ENST00000524851|hu_hu|FALSE|FALSE (ssRNA)
RNA: GGGAGUUCUACAGUCCGACGAUCCCCUCCUAGGAGUUUGUAACGCAGAGACUCUGCCUGGGCAAUGGCACACAGACCUCUAGUGGCCACCUUUUCAGCAUAAAGCUCUACACUGCCCUCUGGAAAGCCAAACCUCUUCUGAACCAACAGAGGAUUGAGCAUCA
B8: chr1:58468927:58468928:-_ENSMUSG00000026034_ENSMUST00000148330|mus_mus|mus_mus_mus_hu_False|58_58 (ssRNA)
RNA: GGGAGUUCUACAGUCCGACGAUCAAUUACUGAAAAAGAUGUUCAUUACCUUAGCUAUGUACUUAAUGAACCAAAUUAUCUAAAAAAAAUAAACAUGGCAAUAUAAAAAUGUUAAGAAUUUACAAAGCUGUACAAAAUAACUUACAACAGAGGAUUGAGCAUCA
B9: chr1:220276048:220276049:+_ENSG00000067704_ENST00000302637|hu_hu|hu_hu_hu_mus_True|8_88 (ssRNA)
RNA: GGGAGUUCUACAGUCCGACGAUCGCAAAUUGCCUGGUUGGCGGGAAUCGUCCAAGGCUGGGUGGUCCAAACUAAAACGCUAACAGGGGAUGAGGCAUCUGUAAGAGACUCCAACUUCGGAGGAGGUUUUAAGAGAGGGAAUCUCAACAGAGGAUUGAGCAUCA
B10: 123900948_123903029_810_CDS_ENSG00000119397_ENST00000373850|human|control|control (ssRNA)
RNA: GGGAGUUCUACAGUCCGACGAUCUAGCUCAUCCACACGAGCUGCCACUUCUUCUGGACGAACCAAACCAUCAACCACAUGGUUAAGGUGAUUCUGGAAAUCUUUAAGUUGCUGUUUUAACAGAUUAUUGUCAUCCUGCAAGUGCAACAGAGGAUUGAGCAUCA
B11: chr5:171327072:171327073:-_ENSG00000072803_ENST00000265094|hu_mus|FALSE|FALSE (ssRNA)
RNA: GGGAGUUCUACAGUCCGACGAUCCACCAGCUCUGCUGCACACAGAGACCUGGCAUCCAGGUAGGAGAGAAUGUUUUCUGCUAUGUGAUCUAAGCCUUGCUCUGGUAAAGCAGUGAUAAAGUCCCGCUGCAACAUGGGCUUCAGCAACAGAGGAUUGAGCAUCA
B12: chr11:13408652:13408653:+_ENSG00000133794_ENST00000403290|hu_hu|motif|central (ssRNA)
RNA: GGGAGUUCUACAGUCCGACGAUCGACUUCUUUGUAGUGUAAAAACACCAUACAUCUGAAAUGACCAUUUGCAUAUAAAAGCGGCCAAUGAUGCUUCUGUGCACAAUGAUUAAAAAAUUCAACACAAACAGAAUCCAAAAUAUACAACAGAGGAUUGAGCAUCA
B13: chr4:48381769:48381770:+_ENSG00000109171_ENST00000512093|hu_mus|motif|central (ssRNA)
RNA: GGGAGUUCUACAGUCCGACGAUCCUUAUAGUUGGAUCCAAUUGAAUCUUCAUCUAAUUCUGAAGCACUUAACUCACGGUCGGUAGAGGACUGAGGGCUGAGUGGAGGGUUUCUAUCUGAUGAACUUUUGAAGUUACCUGAAUUCAACAGAGGAUUGAGCAUCA
B14: chr11:118370577:118370578:+_ENSG00000118058_ENST00000534358|hu_hu|motif|central (ssRNA)
RNA: GGGAGUUCUACAGUCCGACGAUCCUGAUAUCCAAUAGGAAAGAGCUUAUCUUCACAGUCGGAGAGAUCAUUUAGAAUUCCGGAGCAGUCGAUUGUCAUAGACCCAAUCAUCAUGUGGAUAUUUUCUGGUUCCAAGCCAUUGAGCAACAGAGGAUUGAGCAUCA

Some of the results follow.

This assay has as its target T1, UNK ZnF1-3. Nature of the assay: nsRBNS (natural sequence RNA bind-n-seq); RBNS binding buffer (assumed for nsRBNS): 25 mM Tris pH 7.5, 150 mM KCl, 3 mM MgCl2, 0.01% Triton X-100, 500 ug/ml BSA, 20 U/ml SUPERase-In, 4 C; UNK is unkempt and MSI1 is Musashi-1; names of the RNAs are library labels; protein concentration not given here; high values mean tight binding.
Consider B1, for which the binding signal came out at 1.74 enrichment R.

The molecule B2 had a binding signal of 0.793 enrichment R.

As for B3, the binding signal worked out at 1.16 enrichment R.

In the case of B4, the binding signal came to 0.941 enrichment R.

As to B5, the binding signal amounted to 1.7 enrichment R.

For B6, the binding signal is 0.748 enrichment R.

On to B7, for which the binding signal amounted to 0.969 enrichment R.

The molecule B8 showed a binding signal of 1.83 enrichment R.

B9 registered a binding signal of 2.3 enrichment R.

As to B10, the binding signal was 0.671 enrichment R.

B11 had a binding signal of 1.12 enrichment R.

B12 returned a binding signal of 0.771 enrichment R.

In turn, B13 displayed a binding signal of 0.921 enrichment R.

The molecule B14 registered a binding signal of 1.96 enrichment R.
